Drawing on paper PMC6381112, this text covers binding for six molecules.

Sequences of proteins named here, by UniProt entry; tags and fusion partners are left off.
UniProt Q96AC1: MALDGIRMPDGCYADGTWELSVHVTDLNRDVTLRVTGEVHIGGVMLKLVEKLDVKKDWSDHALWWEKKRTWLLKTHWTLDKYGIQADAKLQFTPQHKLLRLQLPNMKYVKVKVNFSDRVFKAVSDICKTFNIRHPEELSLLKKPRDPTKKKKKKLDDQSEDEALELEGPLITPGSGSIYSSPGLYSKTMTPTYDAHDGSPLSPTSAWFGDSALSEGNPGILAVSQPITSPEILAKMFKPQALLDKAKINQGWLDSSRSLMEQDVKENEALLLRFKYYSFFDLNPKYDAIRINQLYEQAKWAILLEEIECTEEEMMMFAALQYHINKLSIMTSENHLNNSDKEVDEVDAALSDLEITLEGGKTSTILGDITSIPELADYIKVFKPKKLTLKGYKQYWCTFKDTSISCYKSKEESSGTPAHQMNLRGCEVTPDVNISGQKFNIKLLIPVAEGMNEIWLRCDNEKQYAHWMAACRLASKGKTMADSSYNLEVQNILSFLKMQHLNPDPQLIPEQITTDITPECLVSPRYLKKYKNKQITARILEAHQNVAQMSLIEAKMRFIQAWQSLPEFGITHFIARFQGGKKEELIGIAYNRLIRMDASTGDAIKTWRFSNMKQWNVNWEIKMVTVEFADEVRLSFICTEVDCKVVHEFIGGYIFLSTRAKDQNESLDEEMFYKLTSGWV

These are yes or no findings as the source states them, for the method shown. For part of these data: Binding seen in cells or lysates may run through a third protein. Some results given as binding are weak or reduced against the parent protein; the word gives no strength. For part of these data: Where a sequence is shown, tags or fusion partners need not be part of it.

For one experiment, the target named is 3xFLAG-kindlin-2 (UniProt Q96AC1). Nature of the experiment: co-IP; kindlin-2 KO A549 cells infected with lentivirus encoding 3xFLAG-kindlin-2 or control vector, IP with anti-FLAG M2 antibody, western blotting with kindlin-2 or PYCR1 antibodies.
Experiment [1] addresses kindlin-2 (human (endogenous in A549)) (UniProt Q96AC1). Nature of the experiment: co-IP; A549 total cell lysates, IP with monoclonal anti-kindlin-2 antibody (clone 3A3.5) or irrelevant mouse IgG overnight at 4 °C, Protein A/G agarose, western blotting; also cells on stiff (40 kPa) or soft (0.35 kPa) hydrogels (more PYCR1 on stiff ECM) and cells on soft hydrogels with or without 10 mM MBCD (no change).

The target is the same in experiment [2]. Nature of the experiment: co-IP; NCI-H358 cell lysates, IP with monoclonal anti-kindlin-2 antibody or irrelevant mouse IgG, western blotting.
The target is the same in experiment [3]. Briefly: co-IP; cytosolic fraction, mitochondrial fraction and total lysates of A549 cells, IP with anti-kindlin-2 antibody or irrelevant mouse IgG, western blotting; largest amount of PYCR1 from the mitochondrial fraction.
The target in the next experiment is GST-kindlin-2 (UniProt Q96AC1). Nature of the experiment: pull-down; GST or GST-fusion proteins bound to glutathione-Sepharose beads incubated with purified His-tagged PYCR1 (0-40 μg ml^-1) for 2 h at 4 °C; washed with 20 mM Tris pH 7.5, 150 mM NaCl, 0.1% Triton; western blotting with anti-His and anti-GST; both purified.
Another experiment deals with mClover-kindlin-2 (UniProt Q96AC1). Nature of the experiment: FRET or BRET; FLIM-FRET in fixed cells co-expressing mClover-tagged kindlin-2 (donor) and mRuby-PYCR1; kindlin-2 KO cells, and A549 cells on stiff or soft hydrogels (signal increased on stiff ECM).

B1: pyrroline-5-carboxylate reductase 1 (PYCR1) (enzyme, UniProt P32322 1-319)
chain: MSVGFIGAGQLAFALAKGFTAAGVLAAHKIMASSPDMDLATVSALRKMGVKLTPHNKETVQHSDVLFLAVKPHIIPFILDEIGADIEDRHIVVSCAAGVTISSIEKKLSAFRPAPRVIRCMTNTPVVVREGATVYATGTHAQVEDGRLMEQLLSSVGFCTEVEEDLIDAVTGLSGSGPAYAFTALDALADGGVKMGLPRRLAVRLGAQALLGAAKMLLHSEQHPGQLKDNVSSPGGATIHALHVLESGGFRSLLINAVEASCIRTRELQSMADQEQVSPAAIKKTILDKVKLDSPAGTALSPSGHTKLLPRSLAPAGKD
Turning to B1, the binding entry (in the experiment with 3xFLAG-kindlin-2; in experiment [1]; in experiment [2]; in experiment [3]) was “binds” in each case.

B2: His-tagged PYCR1 (enzyme, UniProt P32322 1-319)
chain: MSVGFIGAGQLAFALAKGFTAAGVLAAHKIMASSPDMDLATVSALRKMGVKLTPHNKETVQHSDVLFLAVKPHIIPFILDEIGADIEDRHIVVSCAAGVTISSIEKKLSAFRPAPRVIRCMTNTPVVVREGATVYATGTHAQVEDGRLMEQLLSSVGFCTEVEEDLIDAVTGLSGSGPAYAFTALDALADGGVKMGLPRRLAVRLGAQALLGAAKMLLHSEQHPGQLKDNVSSPGGATIHALHVLESGGFRSLLINAVEASCIRTRELQSMADQEQVSPAAIKKTILDKVKLDSPAGTALSPSGHTKLLPRSLAPAGKD
Consider B2, for which, in the experiment with GST-kindlin-2, the binding entry was “binds”.

B3: mRuby-PYCR1 (enzyme, UniProt P32322 1-319)
chain: MSVGFIGAGQLAFALAKGFTAAGVLAAHKIMASSPDMDLATVSALRKMGVKLTPHNKETVQHSDVLFLAVKPHIIPFILDEIGADIEDRHIVVSCAAGVTISSIEKKLSAFRPAPRVIRCMTNTPVVVREGATVYATGTHAQVEDGRLMEQLLSSVGFCTEVEEDLIDAVTGLSGSGPAYAFTALDALADGGVKMGLPRRLAVRLGAQALLGAAKMLLHSEQHPGQLKDNVSSPGGATIHALHVLESGGFRSLLINAVEASCIRTRELQSMADQEQVSPAAIKKTILDKVKLDSPAGTALSPSGHTKLLPRSLAPAGKD
With B3, the binding result with mClover-kindlin-2 is “binds”.

B4: PYCRL (enzyme, UniProt Q53H96 1-274)
chain: MAAAEPSPRRVGFVGAGRMAGAIAQGLIRAGKVEAQHILASAPTDRNLCHFQALGCRTTHSNQEVLQSCLLVIFATKPHVLPAVLAEVAPVVTTEHILVSVAAGVSLSTLEELLPPNTRVLRVLPNLPCVVQEGAIVMARGRHVGSSETKLLQHLLEACGRCEEVPEAYVDIHTGLSGSGVAFVCAFSEALAEGAVKMGMPSSLAHRIAAQTLLGTAKMLLHEGQHPAQLRSDVCTPGGTTIYGLHALEQGGLRAATMSAVEAATCRAKELSRK
Regarding B4, the binding entry in experiment [1] and in experiment [2] was “no binding” each time.

B5: pyrroline-5-carboxylate synthase (P5CS) (enzyme, UniProt P54886 1-795)
chain: MLSQVYRCGFQPFNQHLLPWVKCTTVFRSHCIQPSVIRHVRSWSNIPFITVPLSRTHGKSFAHRSELKHAKRIVVKLGSAVVTRGDECGLALGRLASIVEQVSVLQNQGREMMLVTSGAVAFGKQRLRHEILLSQSVRQALHSGQNQLKEMAIPVLEARACAAAGQSGLMALYEAMFTQYSICAAQILVTNLDFHDEQKRRNLNGTLHELLRMNIVPIVNTNDAVVPPAEPNSDLQGVNVISVKDNDSLAARLAVEMKTDLLIVLSDVEGLFDSPPGSDDAKLIDIFYPGDQQSVTFGTKSRVGMGGMEAKVKAALWALQGGTSVVIANGTHPKVSGHVITDIVEGKKVGTFFSEVKPAGPTVEQQGEMARSGGRMLATLEPEQRAEIIHHLADLLTDQRDEILLANKKDLEEAEGRLAAPLLKRLSLSTSKLNSLAIGLRQIAASSQDSVGRVLRRTRIAKNLELEQVTVPIGVLLVIFESRPDCLPQVAALAIASGNGLLLKGGKEAAHSNRILHLLTQEALSIHGVKEAVQLVNTREEVEDLCRLDKMIDLIIPRGSSQLVRDIQKAAKGIPVMGHSEGICHMYVDSEASVDKVTRLVRDSKCEYPAACNALETLLIHRDLLRTPLFDQIIDMLRVEQVKIHAGPKFASYLTFSPSEVKSLRTEYGDLELCIEVVDNVQDAIDHIHKYGSSHTDVIVTEDENTAEFFLQHVDSACVFWNASTRFSDGYRFGLGAEVGISTSRIHARGPVGLEGLLTTKWLLRGKDHVVSDFSEHGSLKYLHENLPIPQRNTN
As for B5, the binding result in experiment [1] and in experiment [2] was “no binding” each time.

B6: PYCR2 (enzyme, UniProt Q96C36 1-320)
chain: MSVGFIGAGQLAYALARGFTAAGILSAHKIIASSPEMNLPTVSALRKMGVNLTRSNKETVKHSDVLFLAVKPHIIPFILDEIGADVQARHIVVSCAAGVTISSVEKKLMAFQPAPKVIRCMTNTPVVVQEGATVYATGTHALVEDGQLLEQLMSSVGFCTEVEEDLIDAVTGLSGSGPAYAFMALDALADGGVKMGLPRRLAIQLGAQALLGAAKMLLDSEQHPCQLKDNVCSPGGATIHALHFLESGGFRSLLINAVEASCIRTRELQSMADQEKISPAALKKTLLDRVKLESPTVSTLTPSSPGKLLTRSLALGGKKD
Regarding B6, the binding result in experiment [1] and in experiment [2] was “binds” each time.
